Test results taken from the supplement of paper PMC10126150.
Sequences with one replicate were seen in a single cluster, so their values are uncertain.

Tested on: ATP
Assay: switch fluorescence ratio, 500 uM ATP over buffer (Cy3 cluster intensity, sum of 5 cycles each) (fold (ratio)); higher = stronger signal-on switching upon ATP binding; sequences stand for … in TCGTCGGCAGCGTCAGATGTGTATAAGAGACAGTTTTTTTTTTTTTTTTTTTTTTTTT…TC
Conditions: aptamer strand: ATP DNA aptamer (quencher-CACCTGGGGGAGTATTGCGGAGGAAGG + anchor), 100 nM annealed; ATP concentration: 500 uM; one replicate
In short: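 Switching-strand clusters labelled with Cy3 on a modified Illumina MiSeq flow-cell were annealed to 100 nM quencher-labelled ATP aptamer, imaged in selection buffer, and re-imaged after 15 min with 500 uM ATP at 22 °C. This was done over five cycles with NaOH stripping and re-annealing in between. The fluorescence ratio is summed target-cycle over summed buffer-cycle Cy3 intensity per cluster, averaged per switch-domain sequence, excluding clusters outside 100-1000 RFU.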
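Also: ATP exposure 15 min at 22 °C before imaging.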

Q: Which switch fluorescence ratio does the source give for CTCGCGAAAG here?
A: 1.23

Q: How did the switch fluorescence ratio turn out when CTCGCGTATC was run?
A: 1.33

Q: How did the switch fluorescence ratio turn out when CTCGGATGAA was run?
A: 0.986

Q: For CTCGGCTTTA, which switch fluorescence ratio is on record?
A: 1.3

Q: For CTCGTAATTT, which switch fluorescence ratio is on record?
A: 1.26

Q: With CTCGTACTGG as the sequence, how does the switch fluorescence ratio read?
A: 1.02

Q: How did the switch fluorescence ratio turn out when CTCGTAGCGC was run?
A: 1.18

Q: How did the switch fluorescence ratio turn out when CTCGTCGCGC was run?
A: 1.05

Q: For CTCGTGGAA, which switch fluorescence ratio is on record?
A: 1.05

Q: How did the switch fluorescence ratio turn out when CTCGTTCTTG was run?
A: 1.01

Q: CTCTAAAACA was tested. Which switch fluorescence ratio did it give?
A: 1.03

Q: How did the switch fluorescence ratio turn out when CTCTAACAAT was run?
A: 1.23

Q: Which switch fluorescence ratio does the source give for CTCTAATAAT here?
A: 1

Q: CTCTACGTTA was tested. Which switch fluorescence ratio did it give?
A: 1.27

Q: For CTCTAGCTTC, which switch fluorescence ratio is on record?
A: 1.61

Q: Which switch fluorescence ratio does the source give for CTCTATACTT here?
A: 1.05

Q: For CTCTATTGCA, which switch fluorescence ratio is on record?
A: 1.05

Q: How did the switch fluorescence ratio turn out when CTCTCAGAT was run?
A: 0.971

Q: Which switch fluorescence ratio does the source give for CTCTCCGAAT here?
A: 2.95

Q: For CTCTCGATTG, which switch fluorescence ratio is on record?
A: 1.05

Q: Which switch fluorescence ratio does the source give for CTCTCGGGAA here?
A: 1.11

Q: How did the switch fluorescence ratio turn out when CTCTCGGGCA was run?
A: 1.14

Q: How did the switch fluorescence ratio turn out when CTCTCTCTGG was run?
A: 1.15

Q: With CTCTCTGT as the sequence, how does the switch fluorescence ratio read?
A: 1.02

Q: CTCTCTGTTT was tested. Which switch fluorescence ratio did it give?
A: 1.03

Q: With CTCTGACTAT as the sequence, how does the switch fluorescence ratio read?
A: 1.15

Q: For CTCTGCACCG, which switch fluorescence ratio is on record?
A: 1.27

Q: Which switch fluorescence ratio does the source give for CTCTGCAGGA here?
A: 2.3

Q: CTCTGCCGGG was tested. Which switch fluorescence ratio did it give?
A: 1.17

Q: How did the switch fluorescence ratio turn out when CTCTGCCTTT was run?
A: 1.9

Q: CTCTGGTTTC was tested. Which switch fluorescence ratio did it give?
A: 1.18

Q: CTCTTACCCA was tested. Which switch fluorescence ratio did it give?
A: 1.06

Q: For CTCTTACCT, which switch fluorescence ratio is on record?
A: 0.997

Q: CTCTTAGCAA was tested. Which switch fluorescence ratio did it give?
A: 2.49

Q: CTCTTCCGT was tested. Which switch fluorescence ratio did it give?
A: 1.21

Q: For CTCTTGGGGG, which switch fluorescence ratio is on record?
A: 1.2

Q: How did the switch fluorescence ratio turn out when CTCTTGTAGG was run?
A: 0.943

Q: For CTCTTTGATG, which switch fluorescence ratio is on record?
A: 0.97

Q: CTCTTTTGTA was tested. Which switch fluorescence ratio did it give?
A: 0.979

Q: How did the switch fluorescence ratio turn out when CTGAACCCTA was run?
A: 0.996

Q: With CTGAACGTGT as the sequence, how does the switch fluorescence ratio read?
A: 1.01

Q: Which switch fluorescence ratio does the source give for CTGAAGGAGA here?
A: 1.06

Q: With CTGAAGGGT as the sequence, how does the switch fluorescence ratio read?
A: 0.998

Q: How did the switch fluorescence ratio turn out when CTGAAGTGAT was run?
A: 1.53

Q: Which switch fluorescence ratio does the source give for CTGAATACAG here?
A: 1.01

Q: With CTGAATAGCG as the sequence, how does the switch fluorescence ratio read?
A: 1.01

Q: With CTGACCTAAG as the sequence, how does the switch fluorescence ratio read?
A: 0.987

Q: CTGACTAAT was tested. Which switch fluorescence ratio did it give?
A: 1.04

Q: How did the switch fluorescence ratio turn out when CTGAGCATCA was run?
A: 1.16

Q: For CTGAGGGAAG, which switch fluorescence ratio is on record?
A: 1.03

Q: For CTGAGGGAGG, which switch fluorescence ratio is on record?
A: 0.983

Q: How did the switch fluorescence ratio turn out when CTGAGGTCCG was run?
A: 1

Q: With CTGAGGTGAA as the sequence, how does the switch fluorescence ratio read?
A: 1.03

Q: CTGATAAGTA was tested. Which switch fluorescence ratio did it give?
A: 0.977

Q: Which switch fluorescence ratio does the source give for CTGATACCAC here?
A: 1.13

Q: For CTGATAGTTT, which switch fluorescence ratio is on record?
A: 0.99

Q: How did the switch fluorescence ratio turn out when CTGATATTCG was run?
A: 1.02

Q: How did the switch fluorescence ratio turn out when CTGATGACA was run?
A: 0.969

Q: For CTGATGATTG, which switch fluorescence ratio is on record?
A: 1

Q: For CTGATGCGC, which switch fluorescence ratio is on record?
A: 1.53

Q: With CTGATGTAAT as the sequence, how does the switch fluorescence ratio read?
A: 1.36

Q: How did the switch fluorescence ratio turn out when CTGATGTCCT was run?
A: 0.98

Q: Which switch fluorescence ratio does the source give for CTGATTTGGG here?
A: 1.04

Q: For CTGCACACTT, which switch fluorescence ratio is on record?
A: 1.13

Q: For CTGCACCAGA, which switch fluorescence ratio is on record?
A: 1.08

Q: CTGCACGCGG was tested. Which switch fluorescence ratio did it give?
A: 1.21

Q: Which switch fluorescence ratio does the source give for CTGCAGTGAG here?
A: 1.1

Q: For CTGCATGCGA, which switch fluorescence ratio is on record?
A: 1.61

Q: CTGCCAGCTA was tested. Which switch fluorescence ratio did it give?
A: 1.29

Q: With CTGCCATCGG as the sequence, how does the switch fluorescence ratio read?
A: 1.06

Q: Which switch fluorescence ratio does the source give for CTGCCGCCAG here?
A: 1.38

Q: With CTGCCGGCAA as the sequence, how does the switch fluorescence ratio read?
A: 1.49

Q: CTGCCTAGCT was tested. Which switch fluorescence ratio did it give?
A: 0.988

Q: CTGCCTGGGT was tested. Which switch fluorescence ratio did it give?
A: 0.991

Q: With CTGCGAGTGT as the sequence, how does the switch fluorescence ratio read?
A: 1.05

Q: With CTGCGATG as the sequence, how does the switch fluorescence ratio read?
A: 1.14

Q: For CTGCGCGATG, which switch fluorescence ratio is on record?
A: 1.4

Q: How did the switch fluorescence ratio turn out when CTGCGGAGCC was run?
A: 0.988

Q: With CTGCGGCTGA as the sequence, how does the switch fluorescence ratio read?
A: 0.974

Q: How did the switch fluorescence ratio turn out when CTGCGTTTTC was run?
A: 1.1

Q: Which switch fluorescence ratio does the source give for CTGCTAAGAC here?
A: 1.69

Q: For CTGCTAAGGG, which switch fluorescence ratio is on record?
A: 1.01

Q: CTGCTAGTTG was tested. Which switch fluorescence ratio did it give?
A: 1.02

Q: With CTGCTATCTA as the sequence, how does the switch fluorescence ratio read?
A: 1.05

Q: CTGCTGCAGT was tested. Which switch fluorescence ratio did it give?
A: 1.03
